Data on 88 compounds can be found in PubChem BioAssay (NCI).

Several values for one entry are separate records, joined by “and”; a condition that tells them apart may be missing. Identical values can stand only once.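 Assay format: 96-well plates, 48-hour exposure. GI50 is the concentration that inhibits growth by half. At the TGI there is no net growth.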

For this assay, the system named is NCI-H322M lung. The assay can be described thus: NCI anticancer screen, dose series, 48 h.

Compound `C/C=C/[C@@]1(OC(=O)c2ccccc2)C[C@@H]2CCCC[C@@H]21` returned a TGI of 33.2 µM.

Take `CC12CC3C(CC1SCC(=O)O2)C3(C)C` (configuration not stated): the TGI is greater than 100 µM. As to `CC1CC2C3CC(F)C4=CC(=O)C=CC4(C)C3(F)C(O)CC2(C)C1(O)C(=O)COC(=O)C(C)(C)C` (configuration not stated), the TGI was greater than 100 µM.

For the compound `Cc1nc2sccn2c1/C=C1/C(=O)Nc2ccccc21`, the GI50 was 30.6 µM and the TGI is greater than 100 µM. For `O=C1C(N2CCCC2)=CC(=O)c2c(O)c(N3CCCC3)c(Cl)c(O)c21`, the TGI was greater than 10 µM. As to `CC1(C)O[C@H]2Cn3c(c(C#N)c4ccccc43)[C@H]2O1`, the TGI was greater than 100 µM. On the same count and under the same terms, the value for `COc1ccc(/C(=N/NC(N)=O)C2(O)C(=O)Nc3ccc([N+](=O)[O-])cc32)cc1` (configuration not stated) was greater than 100 µM.

On to `CN(C)CCCOc1ccccc1NC1=C(Cl)C(=O)C(Nc2ccccc2OCCCN(C)C)=C(Cl)C1=O`, for which the GI50 was 0.711 µM and the TGI was 1.97 µM.

In turn, `Cc1ccc(C)c(NC(=O)C(=O)CC(=O)C2CCOC2=O)c1` (configuration not stated) returned a TGI greater than 100 µM.

As to `Cc1[nH]ncc1-c1cc2nc(C3CC4CCN3CC4)[nH]c(=O)c2s1` (configuration not stated), the GI50 was 3.61 µM and the TGI is greater than 100 µM. With `C=CCC1OC(C)(C)Oc2ccc(OCOCCOC)cc21` (configuration not stated), the TGI was greater than 100 µM. Regarding `CC[C@@]1(O)C(=O)OCc2c1cc1n(c2=O)Cc2c-1nc1ccccc1c2/C=N\NC(=O)C(N)CC(C)C` (some centres not stated), the TGI was greater than 100 µM. The same measure, in the same setting: the value for `C1=C\SS/C=C\SS/C=C\SS/C=C\SS/1` was greater than 100 µM; that for `COc1cc2c(cc1OC)C13CCN4C=C5CCOC6CC(=O)N2C1C6C5CC43` (configuration not stated) was greater than 100 µM. With `C=CC(=O)Nc1ccc(Nc2nccc(-c3ccc(N4CCCC4)c(C#N)c3)n2)cc1`, the GI50 is 18.8 µM and the TGI is greater than 25 µM.

Compound `CC1=NN(C(=O)CSc2nnc(SCC(=O)N3N=C(C)CC3(O)c3ccccc3)s2)C(O)(c2ccccc2)C1` (configuration not stated) registered a TGI greater than 100 µM. On the same count and under the same terms, the value for `Cc1ccc(S(=O)(=O)c2scc(-c3ccccc3)c2C)cc1` was greater than 100 µM.

As for `O=P([O-])(O)OP(=O)([O-])O.[NH-][C@H]1CCCC[C@@H]1[NH-].[OH-].[OH-].[Pt+4]`, the GI50 is 26.1 µM and the TGI is 80.9 µM. `Cc1c2cc[nH]c(C(F)(F)F)c2cc2c1nc1ccccc12` yielded a TGI greater than 125 µM. Regarding `COC(=O)N1CC2(CO)C3CC=C(C(=O)Nc4ccccc4Br)C2C1C3Br` (configuration not stated), the TGI was greater than 50 µM. Still for that read-out and setting: in the case of `c1ccc(C2=NC3(CCCCC3)N(c3nc4ccccc4s3)N2)nc1` it was greater than 100 µM.

In the case of `CCC1(O)CC(OC2CC(N(C)C)C(OC3CC4OC5CC(=O)C(C)OC5OC4C(C)O3)C(C)O2)c2c(cc3c(c2O)C(=O)c2c(O)ccc(O)c2C3=O)C1C(=O)OC` (configuration not stated), the GI50 was 0.00302 µM and 0.00223 µM and 0.00828 µM. `O=C(O)CN(c1ccccc1)S(=O)(=O)c1ccc(NC(=O)c2ccccc2)cc1` displayed a TGI greater than 100 µM. On the same count and under the same terms, in the case of `CN1C(=O)c2c(ccc3c2OCO3)C2C(O)Cc3cc4c(cc3C21)OCO4` (configuration not stated) it was greater than 100 µM. The compound `S=c1sc2c(Cl)ncnc2n1-c1ccccc1` had a TGI of 26.4 µM. `CNC(=O)c1ccccc1-[s+]1c2ccccc2c(=O)n1C` (configuration not stated) gave a TGI greater than 100 µM. For the compound `FC(F)(F)c1ccc(-c2nc(-c3nc4cc(Cl)c(Cl)cc4[nH]3)c3ccccn23)cc1`, the GI50 was 9.45 µM and the TGI is greater than 100 µM. Turning to `Cn1cnc([N+](=O)[O-])c1Sc1nc2cc(Cl)c(F)cc2[nH]1`, the TGI is greater than 100 µM.

Regarding `CCC[CH2][Sn]([CH2]CCC)([O]C(=O)c1c(F)cccc1F)[O]C(=O)c1c(F)cccc1F`, the GI50 was 1.57 µM and the TGI was 2.91 µM. For `COc1cc2c(cc1OCCCN1CCN(CCCOc3cc4c(cc3OC)C(=O)N3CCC[C@H]3C=N4)CC1)C=CC(C)(C)O2`, in that order: 1.48 µM and 2.87 µM. Turning to `CCCCNC1CCC2(SCCS2)c2[nH]c3ccccc3c21` (configuration not stated), the TGI is greater than 100 µM. As to `O=C(COc1ccc(OCC(=O)N2C(=O)CC(=O)N(c3ccccc3)C2=S)cc1)N1C(=O)CC(=O)N(c2ccccc2)C1=S`, the TGI was greater than 100 µM. On to `CCCN(CCC)CCCNCc1cc(I)cc(C)c1O`, for which the GI50 is 15.7 µM and the TGI worked out at 30.1 µM. Compound `COc1cc(/C=C/C(=O)OCC23CC[C@@]4(C(=O)O)CCC(C)[C@H](C)C4C2=CCC2[C@@]4(C)CC[C@H](O)C(C)(C)C4CC[C@]23C)ccc1O` (some centres not stated) yielded a TGI of 51.9 µM. Compound `C=C1C(=O)OC2/C=C(\C)C(OC(C)=O)C3OC3C(C)(O)CC(OC(=O)/C(C)=C/C)C12` (configuration not stated) yielded a TGI of 32.1 µM.

`OCC1OC(c2scc3c(=S)nc[nH]c23)C(O)C1O` (configuration not stated) came in with a TGI greater than 100 µM.

As for `Cn1cc(-c2nonc2-c2c[nH]c3ccccc23)c2ccccc21`, the GI50 was 1.74 µM and the TGI was found to be 20.8 µM. The compound `O=C1C=CC2CCC1C2` (configuration not stated) showed a TGI of 82.8 µM. As for `COc1cc(C(=O)OCCCCCCCCCCC[P+](c2ccccc2)(c2ccccc2)c2ccccc2)ccc1O`, the GI50 was 2.49 µM and the TGI came out at 8.96 µM. With `C#CCC[C@@H]1O[C@@]1(C)CC/C=C(\C)CC/C=C/C=O`, the TGI was greater than 100 µM. Regarding `O=C(Cc1ccccc1)NCCc1ccc(O)c(O)c1`, the TGI was greater than 100 µM. Turning to `CCOC(=O)c1cccc(NC(=O)CCl)c1`, the TGI was determined as 6.65 µM. For `O=c1c2ccccc2oc2nc3n(c(=O)c12)CCCS3`, the TGI was greater than 100 µM.

As to `O=C(O)c1ccccc1Cc1ccco1`, the TGI is greater than 100 µM. As for `COc1ccc2c(c1)C(=O)c1c-2n(CCCN)c(=O)c2ccccc12`, the GI50 is 0.0551 µM and the TGI was determined as 0.353 µM. As for `C1=C(c2ccccc2)CN(c2ccccc2)OC1`, the TGI is greater than 100 µM. Same read-out and setting: in the case of `N#Cc1cc(C#N)c(Cl)nc1N` it was greater than 10 µM; in that of `O=C1C2CCCCC2C(=O)N1n1c(Cc2ccc(Cl)cc2)n[nH]c1=O` (configuration not stated), greater than 100 µM. The same measure, in the same setting: in the case of `O=C(O)c1ccccc1.[Ag]` it was greater than 58.8 µM; in that of `O=[As](O)(O)c1ccc(NCc2ccccc2)cc1`, greater than 100 µM. Still for that read-out and setting: the value for `CCCC(=O)O` was 12300 µM; that for `CN(C)c1ccc2c(c1)C(=O)N(OS(=O)(=O)c1ccc([N+](=O)[O-])cc1)C2=O` was greater than 100 µM; that for `O=C(O)[C@H]1[C@@H](C2CCCCC2)O[C@@H](C2CCCCC2)O[C@H]1C(F)(F)F` was 57.2 µM. Consider `CCCCCCCCCCCOC(=S)NC(C)C`, for which the TGI is 98.3 µM. As for `CC(C)(C)OC(=O)NCCNC1=CC(=O)c2nc3ccccc3c3ccnc1c23`, the GI50 is 24.9 µM and the TGI turned out to be 93.6 µM.

`[O-]/[N+](=C\c1ccccc1)[C@H](COCc1ccccc1)c1ccccc1` came in with a TGI greater than 100 µM. The same measure, in the same setting: the value for `CCN(CC)CCNC(=O)c1ccccc1NC(=O)C(=O)Nc1ccccc1C(=O)NCCN(CC)CC` was greater than 100 µM. Take `COc1cccc2c1C(=O)c1c(O)c3c(c(O)c1C2=O)CC(O)(C(C)=O)CC3OC1CC(N)C(O)C(C)O1` (configuration not stated): the GI50 was 0.0709 µg/mL and the TGI worked out at 2.46 µg/mL. Consider `O=S(=O)(Oc1ccc2oc3ccccc3c2c1-c1c(OS(=O)(=O)C(F)(F)F)ccc2oc3ccccc3c12)C(F)(F)F`, for which the TGI is greater than 100 µM. Same read-out and setting: in the case of `COc1c2c(c3c(c1C1OC(C)[C@@H](C)O1)CC(C)(C)O3)C(=O)c1ccccc1C2=O` (some centres not stated) it was greater than 100 µM. Regarding `COc1ccc2oc(=N)c(C(=O)Nc3cccc4ccccc34)cc2c1`, the TGI is greater than 100 µM. Still for that read-out and setting: in the case of `CCOC(=O)CCCn1nnc(C(=O)OCC)c1C(=O)OCC` it was greater than 100 µM; in that of `O=C1c2ccccc2C(=O)N1n1c(Cc2ccccc2)n[nH]c1=O`, greater than 100 µM; in that of `NNC(=S)N/N=C(\CCCC(=O)NCCc1ccccc1)CC(=O)c1ccccc1`, greater than 100 µM. With `COc1ccc(-c2[nH]ncc2-c2cc3c(c(OC)c2)OCC(=O)N3)cc1`, the GI50 was 3.09 µM and the TGI is greater than 100 µM. On to `CCC(C)[C@H](NC(=O)[C@H](Cc1ccccc1)NC(=O)N(CC)c1ccccc1)C(=O)N[C@@H](CC(C)C)C(=O)OC` (some centres not stated), for which the TGI was greater than 100 µM. The same measure, in the same setting: in the case of `O=c1cc(CNC2CCCC2)[nH]c(=O)[nH]1` it was greater than 100 µM. `Cc1ccc(C)n1-c1ccccc1C1SCCCS1` had a TGI greater than 100 µM. On the same count and under the same terms, the value for `CCOC(=O)c1cn(-c2ccccc2)c(=S)n2c1nc1ccccc12` was greater than 100 µM; that for `CCOc1ccc(NC(=O)CC2SC(=Nc3ccc(Cl)cc3)NC2=O)cc1` (configuration not stated) was greater than 100 µM. Still for that read-out and setting: in the case of `C=C(C)C(=O)CC[C@@H](C)[C@H]1[C@@H](OC2OC(CO)C(O)C(O)C2O)C[C@@]2(C)[C@@H]3C[C@H](O)C4C(C)(C)[C@@H](OC5OC(CO)C(O)C(O)C5O)CC[C@@]45C[C@@]35CC[C@]12C` (some centres not stated) it was greater than 100 µM; in that of `CN1C/C(=C\c2cccs2)C2=NC(=S)NC(c3cccs3)C2C1` (configuration not stated), greater than 100 µM. On the same count and under the same terms, the value for `Nc1nc(Cl)cc(NCC2(O)CC(CO)C2)n1` (configuration not stated) was greater than 100 µM. Take `CC1=C([Se]CC(OC(=O)[C@@H](CSSC(C)(C)C)NC(=O)OC(C)(C)C)C(=O)NC(C)(C)C)C(=O)c2ccccc2C1=O` (some centres not stated): the GI50 was 0.299 µM and the TGI was 1.18 µM.

Compound `O=C1N[C@H]2c3c(Cl)sc(Cl)c3/C(=N/O)[C@H]2O1` displayed a TGI greater than 100 µM. With `COc1cc(-c2nn3c(/C=C4/C(=O)Nc5ccccc54)c(-c4ccc(C)cc4)nc3s2)cc(OC)c1OC`, the GI50 is 10.3 µM and the TGI was greater than 100 µM. In turn, `Nc1nc(N)c2ncn(CC3CCC(CO)C3)c2n1` (configuration not stated) had a TGI greater than 100 µM. In the case of `O=C(Cn1c(=O)oc2ccc(C(=O)c3ccc(F)cc3)cc21)c1ccc([N+](=O)[O-])cc1`, the TGI is greater than 100 µM. On the same count and under the same terms, in the case of `CCOc1ccccc1NC(=O)CCC(=O)OC` it was greater than 100 µM; in that of `COc1cc(/C=C2/SC(c3ccccc3)N(c3ccc(NC(C)=O)cc3)C2=O)cc(OC)c1OC` (configuration not stated), greater than 100 µM. On to `CC(C)=CCN=C(N)N`, for which the TGI is greater than 100 µM. Still for that read-out and setting: the value for `CC[n+]1cnc(N)c2c(-c3ccc(Cl)cc3)cn(-c3ccc(C)cc3)c21` was 28.6 µM; that for `COC(=O)Cc1cc(OC)c(OC)cc1Br` was greater than 100 µM.

For `COC(=O)[C@@H](NC(=O)NC(=O)NC(=O)CI)C(C)C`, the GI50 is greater than 100 µM and the TGI was greater than 100 µM. Regarding `CCOc1ccc2nc(NC(=O)C(=O)C(C(=O)c3ccccc3-c3ccccc3)C3OC(=O)c4ccccc43)sc2c1` (configuration not stated), the TGI came to 57.9 µM. In turn, `FC(F)(F)C1(Cl)C(c2ccccc2)=C1c1ccccc1` gave a TGI of 32 µM.

The compound `C=CCC1(O)c2ccccc2C(=O)c2c(O)ccc(O)c21` (configuration not stated) came in with a TGI greater than 94.5 µM.

Turning to `Cc1cc(C)nc(NC(N)=NCCc2ccccc2)n1`, the GI50 was 2.59 µM and the TGI is 15.3 µM.
